{
  "source": "PubChem BioAssay (NCATS)",
  "note": "Values joined by “and” are separate entries in the source; they are usually repeats but may differ in a detail not shown here. Equal entries are not always repeated. The inconclusive results got no clear call from the source; some entries with a clear call stand among them for comparison. Potencies of inconclusive entries are doubtful fits and often do not repeat. Active and inactive are the calls of the source. The call rests on the fitted dose curve; in most records, active means well fitted inhibition curve with a large enough effect; inconclusive means small, poorly fitted or top-dose-only effect; inactive means no such curve, though single readings can be large or run the other way. On the % scale 0 is the no-effect control and ±100 the full control effect; potency means the concentration at half of the fitted maximal effect; tags describe the fitted curve by direction and shape.",
  "data": [
    {"experiment": "Primary qHTS for inhibitors of nuclear receptor binding SET domain protein 2 (NSD2) in an RCH-ACV wild type WT cells (2C) (AID 1645877); further: nearly all actives have a fitted effect of over 70% in size", "conditions": "RCH-ACV NSD2 WT (2C) viability, CellTiter-Glo, 72 h; series mostly up to 44.9 µM; activity change, negative = cell killing: at the top concentration", "values": [
      {"smiles": "COc1cc(C(C)=O)ccc1OCCCN1CCC(c2noc3cc(F)ccc23)CC1", "Potency": "inconclusive: 16.8 µM [inhibitor, single point]"},
      {"smiles": "Cc1ccccc1-n1c(Cn2nc(-c3cccc(O)c3)c3c(N)ncnc32)nc2cccc(C)c2c1=O", "Potency": "active: 0.728 µM"},
      {"smiles": "O=C(Nc1cc(Cl)cc2c1[nH]c1cnccc12)c1cccnc1", "Potency": "inconclusive: 8.93 µM [inhibitor, partial curve, poor fit] and inactive"},
      {"smiles": "Cc1cnc(C(=O)O)c[n+]1[O-]", "outcome": "inactive"},
      {"smiles": "O=C(N[C@H](CO)[C@H](O)c1ccc([N+](=O)[O-])cc1)C(Cl)Cl", "Potency": "inconclusive: 19.3 µM [inhibitor, partial curve, poor fit]"},
      {"smiles": "Cc1ccc(C(=O)c2cc(O)c(O)c([N+](=O)[O-])c2)cc1", "Potency": "inconclusive: 29.9 µM [inhibitor, single point] and inconclusive: 37.2 µM [inhibitor, single point]"},
      {"smiles": "O=C(CCc1ccc(O)cc1)c1c(O)cc(O)cc1O", "Potency": "inconclusive: 37.2 µM [inhibitor, partial curve, poor fit]"},
      {"smiles": "Cc1cc(=O)c2c(O)c3c(O)cc(=O)c4c3c3c(cc(O)c1c23)C(C)(C)C=4O", "Potency": "inconclusive: 16.4 µM [inhibitor, partial curve, poor fit]"},
      {"smiles": "CCC(C)n1ncn(-c2ccc(N3CCN(c4ccc(OC[C@H]5CO[C@](Cn6cncn6)(c6ccc(Cl)cc6Cl)O5)cc4)CC3)cc2)c1=O", "note": "(stereo partly drawn)", "Potency": "inconclusive: 23.7 µM [inhibitor, partial curve, poor fit] and inconclusive: 448 nM [inhibitor, full curve]"},
      {"smiles": "N[C@@H](Cc1cc(I)c(Oc2cc(I)c(O)c(I)c2)c(I)c1)C(=O)O", "Potency": "inactive"},
      {"smiles": "CC[C@H](C=C[C@@H](C)[C@H]1CC[C@H]2[C@@H]3CC=C4C[C@@H](O)CC[C@]4(C)[C@@H]3CC[C@]12C)C(C)C", "outcome": "inactive [at 17.3 µM]"},
      {"smiles": "CN(C)N=Nc1nc[nH]c1C(N)=O", "Potency": "active: 3.72 µM"},
      {"smiles": "Clc1ccc(C(Cn2ccnc2)OCc2c(Cl)cccc2Cl)c(Cl)c1", "note": "(stereo not drawn)", "Potency": "active: 21.1 µM and active: 18.6 µM"},
      {"smiles": "CC(C)C(C)C=CC(C)C1CCC2C3=CC=C4CC(O)CCC4(C)C3CCC21C", "note": "(stereo not drawn)", "outcome": "inactive"},
      {"smiles": "Clc1ccc(C(Cn2ccnc2)OCc2ccsc2Cl)c(Cl)c1", "note": "(stereo not drawn)", "Potency": "active: 18.6 µM"},
      {"smiles": "CC(C)C[C@H](NC(=O)[C@H](CCc1ccccc1)NC(=O)CN1CCOCC1)C(=O)N[C@@H](Cc1ccccc1)C(=O)N[C@@H](CC(C)C)C(=O)[C@@]1(C)CO1", "Potency": "active: 6 nM and active: 5.3 nM"},
      {"smiles": "COc1ccccc1N1CCN(CCN(C(=O)C2CCCCC2)c2ccccn2)CC1", "Potency": "inactive and inconclusive: 18.6 µM [inhibitor, partial curve]"},
      {"smiles": "COC[C@@H](c1ccc(C(F)(F)F)cc1)N1CCN(C2(C)CCN(C(=O)c3c(C)ncnc3C)CC2)C[C@H]1C", "Potency": "inconclusive: 26.6 µM [inhibitor, single point]"},
      {"smiles": "C=CCc1cc(OC)c(O)c(C(=O)NCCO)c1", "Potency": "inconclusive: 33.5 µM [inhibitor, single point]"},
      {"smiles": "CNS(=O)(=O)Cc1ccc2[nH]cc(CCN(C)C)c2c1", "activity change, negative = cell killing": "inactive: -5.93%"},
      {"smiles": "CC(C)OC(=O)C(C(=O)OC(C)C)=C1SC=CS1", "Potency": "inconclusive: 33.5 µM [inhibitor, single point]"},
      {"smiles": "Cc1cccc(-c2[nH]c(C(C)(C)C)nc2-c2ccc3nccnc3c2)n1", "Potency": "active: 11.8 µM and active: 6.51 µM"},
      {"smiles": "O=c1cc(-c2cccc3c2Sc2ccccc2S3)oc(N2CCOCC2)c1", "Potency": "active: 11.6 µM and active: 11.8 µM"},
      {"smiles": "CN[C@@H](C)[C@H]1[C@H](O)C[C@@]2(C)[C@@H]3CC[C@H]4C(C)(C)[C@@H](NC)CC[C@@]45C[C@@]35CC[C@]12C", "activity change, negative = cell killing": "inactive: -13.6% [at 9.23 µM]"},
      {"smiles": "CN1CCN(CCCN2c3ccccc3Sc3ccc(Cl)cc32)CC1", "Potency": "inconclusive: 33.5 µM [inhibitor, single point]"},
      {"smiles": "O=C1c2c(O)cc(O)cc2OC(c2ccc(O)c(O)c2)C1O", "note": "(stereo not drawn)", "Potency": "inconclusive: 23.5 µM [inhibitor, single point]"},
      {"smiles": "COc1cc2nc(N3CCN(C(=O)c4ccco4)CC3)nc(N)c2cc1OC", "Potency": "inconclusive: 11.6 µM [inhibitor, single point] and active: 13 µM"},
      {"smiles": "COc1c(O)cc2c(c1O)[C@@H]1O[C@H](CO)[C@@H](O)[C@H](O)[C@H]1OC2=O", "activity change, negative = cell killing": "inactive: -0.556%"}
    ]}
  ]
}
